According to the supplement of paper PMC3334620:
Over roughly 33,000 sequences, “E-score (-0.5 to 0.5)” has its median near -0.012; the highest 2% begin near 0.29. The list shows a part of the results.

Each sequence was assayed against T1, Ybr033w (UniProt P38073) (assay: PBM E-score (8-mer binding enrichment) (E-score (-0.5 to 0.5)); higher = stronger / more preferred TF binding; most listed sequences are background and not binding sites). Details: protein concentration: 200 nM; construct: GST-full length.
T1 sequence: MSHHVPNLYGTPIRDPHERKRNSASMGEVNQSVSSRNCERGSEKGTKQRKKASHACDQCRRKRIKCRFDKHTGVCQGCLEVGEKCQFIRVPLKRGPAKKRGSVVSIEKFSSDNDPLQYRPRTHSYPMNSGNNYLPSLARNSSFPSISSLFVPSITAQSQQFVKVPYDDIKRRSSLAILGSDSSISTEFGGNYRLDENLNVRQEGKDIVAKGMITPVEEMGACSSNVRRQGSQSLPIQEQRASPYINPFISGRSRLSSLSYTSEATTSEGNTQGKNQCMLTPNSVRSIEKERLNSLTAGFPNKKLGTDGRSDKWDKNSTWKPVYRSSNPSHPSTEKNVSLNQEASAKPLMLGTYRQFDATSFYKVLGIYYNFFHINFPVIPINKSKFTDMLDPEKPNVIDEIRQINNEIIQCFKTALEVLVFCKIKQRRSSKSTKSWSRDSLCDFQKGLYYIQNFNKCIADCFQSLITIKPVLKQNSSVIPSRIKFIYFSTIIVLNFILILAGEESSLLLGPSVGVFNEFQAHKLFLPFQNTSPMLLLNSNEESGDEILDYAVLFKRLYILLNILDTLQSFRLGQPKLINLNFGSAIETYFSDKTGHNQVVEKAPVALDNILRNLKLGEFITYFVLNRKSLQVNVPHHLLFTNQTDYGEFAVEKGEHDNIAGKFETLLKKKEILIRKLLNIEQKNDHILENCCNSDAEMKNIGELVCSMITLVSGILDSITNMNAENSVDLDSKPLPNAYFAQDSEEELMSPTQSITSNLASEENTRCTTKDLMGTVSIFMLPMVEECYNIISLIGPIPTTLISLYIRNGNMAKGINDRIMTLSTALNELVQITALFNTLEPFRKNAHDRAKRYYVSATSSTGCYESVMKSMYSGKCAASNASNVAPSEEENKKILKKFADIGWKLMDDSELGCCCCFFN
Summary of the method: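 Universal all-10-mer Agilent arrays, fresh or stripped once, were converted to double-stranded form by primer extension. GST-tagged yeast transcription factors from PURExpress in vitro transcription/translation, full-length or DNA-binding domain only, were applied at about 100-200 nM and detected with fluorescent anti-GST. After masliner normalisation, the Universal PBM Analysis Suite scored each ungapped eight-base word together with its reverse complement by E-score.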

Row | Sequence | PBM E-score
1 | TTAGTCAA | 0.0843
2 | ATGCTCGG | -0.0455
3 | CTCCCGGC | -0.197
4 | AAGTGGAT | 0.046
5 | CGTTGTCA | -0.0639
6 | AAACGTCT | 0.0623
7 | AGGCTTTG | -0.215
8 | CCGTGACA | -0.219
9 | CGGGTGGC | -0.229
10 | GATCTGTA | 0.00583
11 | GTATCTGA | 0.0757
12 | AGGTCATG | -0.121
13 | CATTCCAG | 0.0779
14 | GGAACCCA | -0.306
15 | AGTGTGGC | -0.0881
16 | ATGTGGCC | -0.0631
17 | CATTGTTA | -0.015
18 | CTCTCTGA | -0.281
19 | CTAACCGA | -0.0372
20 | CATTATGG | -0.117
21 | CGCATGGA | -0.0379
22 | CCTTCGCG | -0.0347
23 | ATCTTGTC | 0.053
24 | GACTGGCA | -0.2
25 | CAATTGGG | -0.162

Row | Sequence | PBM E-score
26 | AGCAATCG | 0.158
27 | CTGGGCGC | -0.222
28 | AGGATTGA | 0.254
29 | AGAACCAA | 0.197
30 | ACCCAATC | 0.0765
31 | CCCGCTCA | -0.208
32 | ATGGCCGG | -0.149
33 | AGAAGGAG | -0.202
34 | AACGCCAA | -0.0341
35 | GAGTGATA | 0.11
36 | AGGGAAAT | 0.00233
37 | CGGCAACC | -0.0886
38 | CAGTCTAC | -0.142
39 | ACTACTTC | 0.0442
40 | TGCTCTAA | -0.115
41 | GATATATA | 0.289
42 | CGCTATGC | -0.226
43 | AGGCGCAG | -0.224
44 | ACACCACC | -0.233
45 | GGCTTCTA | -0.0924
46 | ATTCTGTG | 0.105
47 | GCCATTCC | -0.122
48 | TAACATAA | 0.265
49 | GACCGCTA | -0.166
50 | GAATGCTA | -0.159

Row | Sequence | PBM E-score
51 | GGTATAAA | 0.0927
52 | CCTTCATC | -0.0821
53 | ATTGGTTC | 0.232
54 | ATTGCGCA | 0.037
55 | ATACGGTC | -0.132
56 | GGACTCGA | -0.25
57 | TACCACGA | 0.0596
58 | CGAAGCTC | -0.147
59 | GATCGAGA | -0.0805
60 | CAAAACCG | 0.157
61 | AAGCGAGG | -0.193
62 | CGGAATGA | 0.134
63 | AGACAGAG | -0.156
64 | ATGCAGCC | -0.119
65 | CGACACAC | -0.0321
66 | CAAGCGTG | 0.0357
67 | TCTATACA | 0.0515
68 | GACTAAAC | -0.239
69 | ACCCCCCA | -0.391
70 | CTGTACTC | -0.144
71 | CGACTGAA | 0.0567
72 | ACAATGGA | 0.235
73 | ACGCTTCC | -0.215
74 | CGCTCCGA | 0.0417
75 | GGTGGCCA | -0.292

Row | Sequence | PBM E-score
76 | GAAAGATA | 0.189
77 | AGTGGGCG | 0.0881
78 | CGTACTAA | 0.234
79 | AATCCGAC | 0.132
80 | GGTACCTA | -0.142
81 | CGATTAGA | 0.0655
82 | GTGGTGGA | -0.116
83 | CCCACAGA | -0.179
84 | CGGATAGA | 0.179
85 | ATCAGATA | -0.00105
86 | AACCTCGT | -0.0231
87 | ATCTTAGG | -0.155
88 | AGACTAGG | -0.216
89 | AGGAAGAA | 0.36
90 | AGCTTTAC | -0.0505
91 | CGTTGACA | -0.275
92 | ACGGGGAC | -0.275
93 | GAAAGAAC | 0.0327
94 | CAGAGACG | -0.0472
95 | AGTGAGAG | -0.013
96 | GCCCAGCA | -0.19
97 | ACCGCGGA | 0.0249
98 | ACTACCAA | 0.132
99 | AGATAACC | -0.0969
100 | GCCTGTAA | -0.0608

Row | Sequence | PBM E-score
101 | ATATCTAC | 0.173
102 | GCGACTAA | 0.184
103 | CGGTTGTC | 0.0426
104 | ATCTTCCA | 0.249
105 | AGTTATAG | 0.0382
106 | ATTACCTA | 0.227
107 | AGCTCGAC | 0.0972
108 | CCCAGGCC | -0.324
109 | ATATAGCC | 0.178
110 | CGGGTAGC | -0.00686
111 | GCCAGAAC | -0.0693
112 | CTTGGCAC | 0.116
113 | ACGTTTGA | 0.0911
114 | CTTGGCCA | -0.0338
115 | TATAGCGA | -0.114
116 | GGGCCATA | 0.044
117 | CTTCGCAA | -0.0153
118 | CACCAGCC | -0.00306
119 | CTTTGACA | 0.106
120 | ACGGATAC | 0.154
121 | ACCGGTAG | -0.189
122 | TCTCTTAA | 0.0438
123 | AAACATGA | 0.176
124 | AAAGTGGC | -0.0285
125 | GATGGGTA | 0.0515

Row | Sequence | PBM E-score
126 | AGTGTCCC | -0.178
127 | AATAATCG | 0.13
128 | ATCAGGTC | -0.0388
129 | GCTCATAA | -0.0365
130 | CCGTCCCA | -0.0863
131 | ATGCTCGA | 0.0442
132 | ATGATAAT | 0.264
133 | GGCCTGGA | -0.302
134 | CACAAGTC | -0.11
135 | GCCTTTAA | -0.00642
136 | AATTCGGC | -0.0451
137 | CGTCATAC | 0.202
138 | GAGAGAGA | -0.0363
139 | GCTTCGAA | 0.0658
140 | AGACAACT | 0.123
141 | CTGCGCGA | -0.00207
142 | ATATGTGG | 0.173
143 | ATCATTCA | 0.144
144 | CGATTAGC | -0.0421
145 | AACGGATC | 0.174
146 | CGCTAGAG | -0.115
147 | CTTCAGGC | -0.133
148 | CTACCGTC | -0.045
149 | CTAGAGAG | 0.0339
150 | GTGTAAGA | 0.124

Row | Sequence | PBM E-score
151 | GGAACGAA | 0.104
152 | ACCCCTTA | -0.138
153 | CAAGGGTG | -0.113
154 | GAGGTGTA | -0.141
155 | CGGGTTAC | -0.256
156 | ACTTTGCT | 0.00161
157 | GCGGATTA | 0.285
158 | TAAGGTAA | 0.0298
159 | GCTGCAGC | -0.127
160 | CCGCGAGC | -0.194
161 | GCGTTACC | -0.142
162 | AATGTGCC | -0.0476
163 | GGGAGACA | -0.151
164 | GTGTCGCA | -0.165
165 | TCCTTTAA | 0.132
166 | GAGTAGCC | -0.119
167 | CCCGCGTC | 0.021
168 | CGAGTGAC | -0.0696
169 | ACTGTGGG | -0.085
170 | ATATAATG | 0.0733
171 | CCGGGCAA | -0.164
172 | CGTAGATA | 0.0341
